Reference: the antibiotic and cytotoxicity screens of Wong et al. (2023)
Some of the results follow.

Test system: HepG2
Assay: cytotoxicity call (relative viability < 0.9)
Conditions: 10 µM

SMILES	cytotoxicity call
C[C@@H]1CN([C@H](C)CO)C(=O)Cc2cc(NC(=O)Nc3ccccc3)ccc2O[C@H]1CN(C)S(=O)(=O)c1cn(C)cn1	inactive
C[C@@H]1CN([C@@H](C)CO)C(=O)Cc2cc(NC(=O)c3ccncc3)ccc2O[C@H]1CN(C)S(=O)(=O)c1cn(C)cn1	inactive
C[C@@H]1CN([C@@H](C)CO)C(=O)c2cc(C#CCN(C)C)cnc2O[C@H]1CN(C)S(=O)(=O)c1ccccc1	inactive
C[C@H]1CN([C@@H](C)CO)C(=O)Cc2cc(NC(=O)Nc3cccc4ccccc34)ccc2O[C@@H]1CN(C)C(=O)Nc1cccc2ccccc12	inactive
O=C(/C=C/c1ccc(O)c(O)c1)O[C@H]([C@H](OC(=O)/C=C/c1ccc(O)c(O)c1)[C@H](OC(=O)/C=C/c1ccc(O)c(O)c1)C(=O)O)[C@@H](OC(=O)/C=C/c1ccc(O)c(O)c1)C(=O)O	inactive
C[C@@H]1CN([C@@H](C)CO)C(=O)c2cc(NC(=O)Nc3ccc4c(c3)OCO4)ccc2O[C@@H](C)CCCCO[C@@H]1CN(C)C(=O)NC1CCCCC1	inactive
C[C@@H]1CN([C@@H](C)CO)C(=O)c2cccc(NC(=O)Nc3ccc(C(F)(F)F)cc3)c2O[C@H]1CN(C)Cc1ccc(C(F)(F)F)cc1	active
CCS(=O)(=O)N1C[C@]2(CN(C2)S(=O)(=O)c2cn(cn2)C)c2c([nH]c3cc(ccc23)OC)[C@H]1CO	inactive
C[C@H]1CN([C@@H](C)CO)C(=O)c2cccc(NC(=O)Nc3ccc(C(F)(F)F)cc3)c2O[C@@H]1CN(C)Cc1ccc(-c2ccccc2)cc1	inactive
